Patent US20250282874A1 (SUZHOU TRANSCENTA THERAPEUTICS, published 2025)

Experiments:
[1] = molecular target: cynomolgus PD-L1 on activated cynomolgus T cells (cynomolgus, UniProt G7PSE7 19-290); assay: flow cytometry on PHA-activated cynomolgus PBMC (T cells), Mean APC-A
human Activin A = molecular target: T1, human Activin A (human, UniProt P08476 311-426); assay: ELISA, antigen (0.5 ug/mL) coated, anti-human Fc-HRP, OD450
T1 sequence (looked up): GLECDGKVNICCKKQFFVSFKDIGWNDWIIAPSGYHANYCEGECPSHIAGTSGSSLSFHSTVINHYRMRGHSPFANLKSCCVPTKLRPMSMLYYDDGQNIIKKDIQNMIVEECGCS

human BMP-2 = molecular target: T2, human BMP-2 (human, UniProt P12643 283-396); assay: as above
T2 sequence (looked up): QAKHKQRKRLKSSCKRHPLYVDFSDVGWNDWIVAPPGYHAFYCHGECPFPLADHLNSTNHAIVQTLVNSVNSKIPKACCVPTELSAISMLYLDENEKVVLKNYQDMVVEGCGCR

human LAP = molecular target: T3, human LAP (human, UniProt P01137 fragment); assay: as above
T3 construct: domain: LAP

[2] = molecular target: T4, hPD-L1 (Acro Biosystems, PD1-H5229) (human, UniProt Q9NZQ7 fragment); assay: ELISA, hPD-L1 (0.5 ug/mL) coated, anti-human Fc-HRP, OD450
T4 construct: also called human PD-L1; hPD-L1 protein

[3] = molecular target: T4, hPD-L1 (Acro Biosystems, PD1-H5229); assay: as above; remark: listed apart in the source
T4 sequence (Q9NZQ7 19-238 limits assumed): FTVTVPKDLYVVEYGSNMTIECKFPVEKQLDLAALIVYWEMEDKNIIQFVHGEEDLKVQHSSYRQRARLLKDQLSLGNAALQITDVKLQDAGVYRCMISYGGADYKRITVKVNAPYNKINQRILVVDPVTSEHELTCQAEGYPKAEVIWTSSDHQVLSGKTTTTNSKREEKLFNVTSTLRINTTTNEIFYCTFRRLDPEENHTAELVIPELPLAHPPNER

[4] = molecular target: T5, human PD-L1 expressed on cells (human, UniProt Q9NZQ7); assay: flow cytometry on NCI-H292 cells, Mean FITC-A
T5 construct: whole, on cells; also called MC38/hPD-L1

[5] = molecular target: T5, human PD-L1 expressed on cells; assay: cell-based or functional assay
T5 sequence (Q9NZQ7 19-290): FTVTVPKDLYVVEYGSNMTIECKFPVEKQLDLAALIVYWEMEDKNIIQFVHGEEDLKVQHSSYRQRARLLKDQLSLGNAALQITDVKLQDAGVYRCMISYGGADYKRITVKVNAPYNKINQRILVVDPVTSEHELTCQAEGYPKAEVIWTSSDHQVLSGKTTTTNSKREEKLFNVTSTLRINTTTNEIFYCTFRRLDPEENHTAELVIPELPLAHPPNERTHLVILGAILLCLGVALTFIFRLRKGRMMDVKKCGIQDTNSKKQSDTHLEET

[6] = molecular target: T5, human PD-L1 expressed on cells; assay: flow cytometry on PHA-activated human PBMC (T cells), Mean APC-A
human TGFβ1 = molecular target: T6, human TGFβ1 (human, UniProt P01137 fragment); assay: bridging ELISA, hTGFβ-1 coated, detected with hPD-L1-biotin and streptavidin-HRP, OD450
T6 construct: also called hTGFβ-1; TGFb1

human TGFβ2 = molecular target: T7, human TGFβ2 (human, UniProt P61812 303-414); assay: ELISA; fusion coated, TGFβ2 titrated, biotinylated anti-TGFβ2 and HRP-streptavidin
T7 sequence (looked up): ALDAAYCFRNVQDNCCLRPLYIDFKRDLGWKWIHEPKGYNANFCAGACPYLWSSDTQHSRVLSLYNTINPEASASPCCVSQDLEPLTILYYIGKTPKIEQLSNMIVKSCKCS

mouse TGFβ2 = molecular target: T8, mouse TGFβ2 (mouse, UniProt P27090 303-414); assay: as above
T8 sequence (looked up): T7 sequence (looked up) with S59T, R60K, K94N

[7] = molecular target: T5, human PD-L1 expressed on cells; assay: flow cytometry on MC38/hPD-L1 cells, Mean FITC-A
hPD-L2 = molecular target: T9, hPD-L2 (human, UniProt Q9BQ51 20-219, limits assumed); assay: ELISA, hPD-L2 (0.5 ug/mL) coated, anti-human Fc-HRP, OD450
T9 sequence (looked up): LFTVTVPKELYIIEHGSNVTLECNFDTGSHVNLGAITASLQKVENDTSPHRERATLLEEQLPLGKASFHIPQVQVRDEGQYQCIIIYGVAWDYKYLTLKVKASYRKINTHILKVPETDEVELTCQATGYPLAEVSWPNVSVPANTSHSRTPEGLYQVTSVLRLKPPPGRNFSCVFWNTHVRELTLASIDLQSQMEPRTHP

human PD-L1-Fc = molecular target: T10, human PD-L1-Fc (human, UniProt Q9NZQ7 fragment); assay: competition ELISA, hPD-L1-Fc coated; blocked ligand hPD-1-Fc-biotin, OD450
Sequence of human PD-L1-Fc (Q9NZQ7 19-239 limits assumed): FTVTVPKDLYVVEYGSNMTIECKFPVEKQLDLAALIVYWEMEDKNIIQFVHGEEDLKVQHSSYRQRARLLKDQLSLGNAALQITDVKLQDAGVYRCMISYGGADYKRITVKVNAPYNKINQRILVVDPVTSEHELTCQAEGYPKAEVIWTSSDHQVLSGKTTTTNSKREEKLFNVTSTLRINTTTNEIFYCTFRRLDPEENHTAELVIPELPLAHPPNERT
T10 construct: also called hPD-L1-Fc; human PD-L1-Fc (Sino Biological, 70110-D02H); not shown: Fc part

[8] = molecular target: T5, human PD-L1 expressed on cells; assay: flow cytometry on activated human T cells, Mean FITC-A

Sequence of UniProt G7PSE7 (G7PSE7 entry or part of it limits assumed): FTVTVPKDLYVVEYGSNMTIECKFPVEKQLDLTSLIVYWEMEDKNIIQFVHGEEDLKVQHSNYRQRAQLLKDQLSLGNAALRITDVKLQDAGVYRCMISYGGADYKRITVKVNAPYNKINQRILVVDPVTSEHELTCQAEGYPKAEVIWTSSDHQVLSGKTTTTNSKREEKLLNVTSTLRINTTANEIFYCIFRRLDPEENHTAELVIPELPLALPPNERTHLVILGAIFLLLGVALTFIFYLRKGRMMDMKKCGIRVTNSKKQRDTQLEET

- EC50 [1]: 1.31 nM
- binding result (human Activin A): no binding (tested: 100 nM)
- binding result (human BMP-2): no binding (tested: 100 nM)
- binding result (human LAP): no binding (tested: 100 nM)
- EC50 (read off the curve) [2]: ~0.1 nM
- EC50 (read off the curve) [3]: ~0.1 nM
- EC50 [4]: 0.298 nM
- IC50 (so in the source), NFAT-luciferase luminescence, hPD-L1/hPD-1 reporter cell assay [5]: 0.771 nM
- EC50 [6]: 0.644 nM
- EC50 (read off the curve) (human TGFβ1): ~0.5 nM
- EC50 (human TGFβ2): 8.46 nM
- EC50 (mouse TGFβ2): 8.88 nM
- EC50 [7]: 0.437 nM
- binding result (hPD-L2): no binding (tested: 100 nM)
- IC50 (human PD-L1-Fc): 2.02 nM
- EC50 [8]: 0.206 nM
B1: AM4B6-hIgG1-TGFβRII′ (other)
heavy: QVQLVQSGAEVKKPGASVKVSCKASGYVFTDYYMNWVRQAPGQSLEWMGDINPNNAETLYNHKFKGRVTVTVDKSISTAYMELSRLRSDDTAVYYCVKWGDGPFAYWGQGTLVTVSS[human IgG1 constant region omitted here]GGGGSGGGGSGGGGSGGGGSGGAVKFPQLCKFCDVRFSTCDNQKSCMSNCSITSICEKPQEVCVAVWRKNDENITLETVCHDPKLPYHDFILEDAASPKCIMKEKKKPGETFFMCSCSSDECNDNIIFSEEYNTSNPD
light: DIQMTQSPSSLSASVGDRVTITCKASQNVGAAVAWYQQKPGKAPKLLIYSVSDRYTGVPSRFSGSGSGTDFTLTISSLQPEDIATYYCQQYSNYPTFGQGTKLEIKRTVAAPSVFIFPPSDEQLKSGTASVVCLLNNFYPREAKVQWKVDNALQSGNSQESVTEQDSKDSTYSLSSTLTLSKADYEKHKVYACEVTHQGLSSPVTKSFNRGEC

Changes are numbered by the printed parent chain. Like-named read-outs stand apart in the source and are kept apart here.
